In all, about 3,600 compounds were measured (“viability index relative to DMSO control”: median about 0.81, lowest 2% from about 0.13 on). Some of the results follow.
The compounds below were run on Plasmodium falciparum NF54 stage V gametocytes (assay: viability index relative to DMSO control (fraction); higher = less gametocyte killing). Conditions: 1.25 µM, incubation time: 72 h.
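Note: 384-well serum-free SaLSSA: MitoTracker Red CMXRos staining with saponin lysis, high-content imaging, treated-well particle count divided by plate-mean count of DMSO wells.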

Compound	viability index
CCCCCCCCCCOC(=O)Cn1c(C)[n+](C)c2ccccc21	0.969
CCOc1ccc(Nc2cc(=O)oc3ccccc23)cc1	0.618
Cc1nc2c(C)c(-c3ccccc3)nn2c(O)c1C	0.889
Cc1cc(NCCN2CCCCC2)c2ccc3ccccc3c2n1	0.57
COc1ccc2cc(CNC3CCN(Cc4ccccc4)CC3)c(=O)[nH]c2c1	0.753
CCOC(=O)c1cc(-c2ccc(OC)cc2)n(CCC(=O)NCc2ccc(OC)cc2)c1C	1.08
COc1ccc(Nc2cc(C)nc(NCc3ccccc3)n2)cc1	0.555
CCOC(=O)C(C)Oc1cccc2c(=O)n(CC(=O)Nc3ccc(OC(F)(F)F)cc3)ccc12 (stereo not drawn)	1.02
O=[N+]([O-])c1ccc(-c2nc3ccccc3n2-c2cc(-c3ccccc3)nn2-c2ccccc2)cc1	0.798
CN1CCc2c(sc3nc(SCc4ccc(F)cc4)n(-c4ccccc4)c(=O)c23)C1	0.726
COC(=O)C1=C(C)NC2=C(C(=O)CC(c3ccc(OC)cc3)C2)C1c1ccc(F)cc1 (stereo not drawn)	0.691
COc1ccc(C2Nc3ccc(C(C)=O)cc3C3C=CCC32)cc1[N+](=O)[O-] (stereo not drawn)	0.821
Cn1nc(C(F)(F)F)c(C(=O)Nc2ccc(Cl)cc2)c1Sc1ccc(Cl)cc1	0.951
C=CC1CN2CCC1CC2[C@H](O)c1ccnc2ccc(OC)cc12 (stereo partly drawn)	0.785
COc1ccc2nc(C)cc(Nc3ccc(Cl)cc3)c2c1	1.01
Cc1ccc(C=Cc2ccc3ccccc3[n+]2C)cc1	0.754
COC1=C(Nc2cccc(C(F)(F)F)c2)C(=O)c2ccccc2C1=O	0.606
COc1ccc(-c2noc(CC(=O)Nc3ccccc3C#N)n2)cc1	1.02
COc1ccc(C=CC(=O)Nc2ccc3nc(N4CCN(C)CC4)cc(C)c3c2)cc1OC	1.01
CCOc1cc([N+](=O)[O-])cc(C=Nc2cccc(NC(=O)c3ccco3)c2)c1O	0.989

Compound	viability index
Cc1ccnc(NC(c2ccncc2)c2ccc3cccnc3c2O)c1 (stereo not drawn)	0.942
COc1ccc(C=CC(=O)NC(=O)c2ccccc2O)cc1OC	0.693
Oc1ccc(Br)cc1C=NNc1nc2ccccc2[nH]1	0.981
CC(C)(C)OC(=O)N1CCC(c2c(C(=O)Nc3cccc(C(F)(F)F)c3)cnn2-c2ccc(F)cc2F)CC1	0.655
CCc1ccc2ncc(C(=O)OCCOC)c(O)c2c1	0.62
CC(=O)Nc1cc([N+](=O)[O-])ccc1N1CCOCC1	0.867
CCOC(=O)c1[nH]c(C)c(Cc2ccc(OCC)cc2)c1C	0.789
c1ccc2c(c1)OC13CCCCC1C2NCC3 (stereo not drawn)	0.694
CN1C=C(c2ccc3ccccc3n2)C(c2c[nH]c3ccccc23)c2ccccc21 (stereo not drawn)	0.848
CCOc1ccccc1CN1CCCC(C(=O)N2CCCCCC2)C1 (stereo not drawn)	0.975
CC(=O)N(C1=C(N2CCOCC2)C(=O)c2ccccc2C1=O)c1ccc(I)cc1	0.14
Cc1ccc2nc(-c3ccc(NC(=O)c4ccc(S(=O)(=O)N5CC(C)CC(C)C5)cc4)cc3)sc2c1 (stereo not drawn)	0.94
CC1(C)N=C(N)N=C(N)N1c1ccccc1	1.17
Cc1cccc(C)c1N(CC(=O)NCc1ccco1)S(C)(=O)=O	0.914
CCOc1ccc(NC(=O)CSc2nc3cc(OCC)ccc3[nH]2)cc1	1.16
CC1=C(CC(=O)c2cccc([N+](=O)[O-])c2)C(=O)c2ccccc2C1=O	0.865
CC(=O)NC1=NN(C(C)=O)C(c2ccc(Br)cc2)S1 (stereo not drawn)	0.944
COC(=O)c1cc(NC(=S)NC(=O)c2c(OC)cccc2OC)cc(C(=O)OC)c1	0.99
CC1=NOC(=O)C1=Cc1cccs1	1.12
Cc1ccc([N+](=O)[O-])cc1-c1ccc(/C=C2/SC(=S)N(CC(=O)O)C2=O)o1	1.13

Compound	viability index
CC1CCN(C(=O)C(C)N(c2ccccc2)S(C)(=O)=O)CC1 (stereo not drawn)	0.917
COc1ccc(CN2CCc3nnc(CCc4ccccc4)n3CC2)c(F)c1	0.933
CC(=O)N1c2ccc(C)cc2C(C)(c2ccccc2)CC1(C)C (stereo not drawn)	0.61
O=C1C2C(C(=O)N1c1ccc(F)cc1)C1(c3ccccc3)C(=O)C2(c2ccccc2)C(c2ccccc2)=C1c1ccccc1 (stereo not drawn)	0.525
CCCOc1ccc(C=Nc2ccc(S(=O)(=O)Nc3ccccn3)cc2)cc1	0.985
COc1cc(-c2nc(-c3ccc(C)c(C)c3)c(-c3ccc(C)c(C)c3)[nH]2)cc(OC)c1O	0.592
CCOc1ccc(-n2c(=S)sc3c(=O)n(-c4ccc(C)cc4)c(SCC(=O)Nc4cc(OC)ccc4OC)nc32)cc1	0.341
CC(=O)NC(=Cc1ccc(OC(F)F)cc1)C(=O)O	0.909
CCCCCc1ccc(OCCCC[n+]2cccc(C)c2)c(CCCCC)c1	0.502
COc1ccc(C2C(C(=O)Nc3cnc4ccccc4c3)c3ccccc3C(=O)N2Cc2ccc(F)cc2)cc1 (stereo not drawn)	0.819
CC(C)NC(=O)[C@@H]1C[C@@H](NCc2cccnc2)CN1Cc1ccc2ccccc2c1	0.625
N#Cc1ccccc1Cn1nc(-c2cccnc2)oc1=O	0.815
COc1cccc(C(C(=O)NC2CCCCC2)N(C(=O)c2snc(C(N)=O)c2N)c2ccc(C)cc2)c1OC (stereo not drawn)	0.792
O=C1N(c2ccccc2)C[C@@H]2C[C@@H](c3ccc4nsnc4c3)N3CCC[C@@]123	0.673
Cc1ccc(-c2c[n+](CC(=O)c3ccccc3Cl)c3n2CCC3)cc1	0.937
Cn1c(=O)n(Cc2ccccc2)c(=O)c2c1nc(SCC(=O)Nc1ccccc1)n2Cc1ccccc1	0.573
COC(=O)c1sc(-c2ccccc2)cc1NC(=O)c1ccc(S(=O)(=O)N2CCCCCC2)cc1	0.62
COc1ccc(C2CC(=O)C3=C(C2)NC(C)=C(C(=O)OC(C)C)C3c2ccccc2Cl)cc1OC (stereo not drawn)	0.463

— the supplement of paper PMC4723716
